Experimental data from patent US9763922B2 (priority 2014, dated 2017).

Each molecule was assayed on MYC (assay: cells). Details: Homo sapiens, MV4-11, 4 h, read-out: Myc IC50 (μM).
CC(=O)N1CCc2c(c(Nc3ccc(-c4ccc(F)cc4)cc3)nn2CC2CC2)C1 [Example 97, 1-[3-[5-chloro-6-(1-methylpyrazol-4-yl)-3,4-dihydro-2H-quinolin-1-yl]-1-[(3S)-tetrahydrofuran-3-yl]-6,7-dihydro-4H-pyrazolo[4,3-c]pyridin-5-yl]ethanone] showed an IC50 of 0.71 µM.
In the case of CC(=O)N1CCc2c(c(N3CCCc4cc(-c5cnn(C)c5)c(C(F)F)cc43)nn2[C@H]2CCNC(=O)C2)C1 (single isomer, unassigned) [Example 344], the IC50 was 0.009 µM.
CC(=O)N1CCc2c(c(N3CCc4cc(-c5cnn(C)c5)c(C#N)cc43)nn2C2CCOCC2)C1 [Example 219, 1-(5-acetyl-1-tetrahydropyran-4-yl-6,7-dihydro-4H-pyrazolo[4,3-c]pyridin-3-yl)-5-(1-methylpyrazol-4-yl)indoline-6-carbonitrile] gave an IC50 of 0.192 µM.
CC(=O)Nc1ccc(-c2cc3c(cc2C(F)F)N(c2nn(C4CCOCC4)c4c2CN(C(C)=O)CC4)CCC3)cn1 [Example 310, 1-[3-[2-fluoro-4-[3-(trifluoromethyl)-1H-pyrazol-4-yl]anilino]-1-tetrahydrofuran-3-yl-6,7-dihydro-4H-pyrazolo[4,3-c]pyridin-5-yl]ethanone] showed an IC50 of 0.004 µM.
CC(=O)N1CCc2c(c(N3CCCc4cc(-c5ccnc(C#N)c5)c(C(F)F)cc43)nn2C2CCOCC2)C1 [Example 316, 4-[1-(5-acetyl-1-tetrahydropyran-4-yl-6,7-dihydro-4H-pyrazolo[4,3-c]pyridin-3-yl)-7-(difluoromethyl)-3,4-dihydro-2H-quinolin-6-yl]pyridine-2-carbonitrile] showed an IC50 of 0.034 µM.
Work on COC(=O)c1ccc2c(c1)N(c1nn(C)c3c1CN(C(C)=O)CC3)CC2 [Example 212, methyl 1-(5-acetyl-1-methyl-6,7-dihydro-4H-pyrazolo[4,3-c]pyridin-3-yl)indoline-6-carboxylate] yielded an IC50 of 4.5 µM.
CC(=O)N1CCc2c(c(Nc3ccc(-c4ccnn4C)cc3)nn2CC2CC2)C1 [Example 96, 1-[3-(5-chloro-3,4-dihydro-2H-quinolin-1-yl)-1-[(3S)-tetrahydrofuran-3-yl]-6,7-dihydro-4H-pyrazolo[4,3-c]pyridin-5-yl]ethanone] showed an IC50 of 0.45 µM.
For CC(=O)N1CCc2c(c(Nc3ccc(-c4cn(C)nc4C(F)F)cc3F)nn2C2CCOC2)C1 (stereo not drawn) [Example 305, 1-[3-[4-[3-(difluoromethyl)-1-methyl-pyrazol-4-yl]-2-fluoro-anilino]-1-tetrahydrofuran-3-yl-6,7-dihydro-4H-pyrazolo[4,3-c]pyridin-5-yl]ethanone], the IC50 was 0.093 µM.
CC(=O)N1CCc2c(c(N3C[C@H](c4ccccc4)Cc4cc(-c5cnn(C)c5)ccc43)nn2[C@H]2CCOC2)C1 [Example 119, (S, S)-1-[3-[6-(1-methylpyrazol-4-yl)-3-phenyl-3,4-dihydro-2H-quinolin-1-yl]-1-tetrahydrofuran-3-yl-6,7-dihydro-4H-pyrazolo[4,3-c]pyridin-5-yl]ethanone] was tested, and the IC50 was 0.657 µM.
In the case of CC(=O)N1CCc2c(c(N3CCN(C)c4cc(-c5cnn(C)c5)ccc43)nn2[C@H]2CCOC2)C1 [Example 95, 1-[3-[4-methyl-6-(1-methylpyrazol-4-yl)-2,3-dihydroquinoxalin-1-yl]-1-[(3S)-tetrahydrofuran-3-yl]-6,7-dihydro-4H-pyrazolo[4,3-c]pyridin-5-yl]ethanone], the IC50 was 0.474 µM.
Molecule CNC(=O)N1CCc2c(c(N3CCCc4cc(-c5ccc(C)s5)c(C(F)F)cc43)nn2C2CCOCC2)C1 [Example 360, 3-[7-(difluoromethyl)-6-(5-methyl-2-thienyl)-3,4-dihydro-2H-quinolin-1-yl]-N-methyl-1-tetrahydropyran-4-yl-6,7-dihydro-4H-pyrazolo[4,3-c]pyridine-5-carboxamide] has an IC50 of 0.113 µM.
Work on CC(=O)N1CCc2c(c(Nc3ccc(-c4cnn(C)c4)cc3F)nn2[C@H]2CCOC2)C1 [Example 300, 1-[3-[2-fluoro-4-(1-methylpyrazol-4-yl)anilino]-1-[(3S)-tetrahydrofuran-3-yl]-6,7-dihydro-4H-pyrazolo[4,3-c]pyridin-5-yl]ethanone] yielded an IC50 of 1.2 µM.
